Reference: article PMC12102207, “Interplay of kinetochores and catalysts drives rapid assembly of the mitotic checkpoint complex” (Nature Communications, 2025)

Target: T1, ^CFPBUBR1:BUB3 (human, UniProt O60566; O43684)
T1 construct: BUBR1, human; BUB3, human
Test: FRET or BRET; MCC FRET sensor: ^CFPBUBR1 donor and O-MAD2^TAMRA acceptor (100 nM each) with CDC20 (500 nM or 100 nM) and catalysts MAD1:C-MAD2, BUB1:BUB3, MPS1; sensitized TAMRA emission over time; 50 mM Hepes pH 7.5, 150 mM NaCl, 5% glycerol, 10 mM ß-Mercaptoethanol
Conditions: both partners purified

T1 sequence (O60566 whole entry, chain 1 of 2): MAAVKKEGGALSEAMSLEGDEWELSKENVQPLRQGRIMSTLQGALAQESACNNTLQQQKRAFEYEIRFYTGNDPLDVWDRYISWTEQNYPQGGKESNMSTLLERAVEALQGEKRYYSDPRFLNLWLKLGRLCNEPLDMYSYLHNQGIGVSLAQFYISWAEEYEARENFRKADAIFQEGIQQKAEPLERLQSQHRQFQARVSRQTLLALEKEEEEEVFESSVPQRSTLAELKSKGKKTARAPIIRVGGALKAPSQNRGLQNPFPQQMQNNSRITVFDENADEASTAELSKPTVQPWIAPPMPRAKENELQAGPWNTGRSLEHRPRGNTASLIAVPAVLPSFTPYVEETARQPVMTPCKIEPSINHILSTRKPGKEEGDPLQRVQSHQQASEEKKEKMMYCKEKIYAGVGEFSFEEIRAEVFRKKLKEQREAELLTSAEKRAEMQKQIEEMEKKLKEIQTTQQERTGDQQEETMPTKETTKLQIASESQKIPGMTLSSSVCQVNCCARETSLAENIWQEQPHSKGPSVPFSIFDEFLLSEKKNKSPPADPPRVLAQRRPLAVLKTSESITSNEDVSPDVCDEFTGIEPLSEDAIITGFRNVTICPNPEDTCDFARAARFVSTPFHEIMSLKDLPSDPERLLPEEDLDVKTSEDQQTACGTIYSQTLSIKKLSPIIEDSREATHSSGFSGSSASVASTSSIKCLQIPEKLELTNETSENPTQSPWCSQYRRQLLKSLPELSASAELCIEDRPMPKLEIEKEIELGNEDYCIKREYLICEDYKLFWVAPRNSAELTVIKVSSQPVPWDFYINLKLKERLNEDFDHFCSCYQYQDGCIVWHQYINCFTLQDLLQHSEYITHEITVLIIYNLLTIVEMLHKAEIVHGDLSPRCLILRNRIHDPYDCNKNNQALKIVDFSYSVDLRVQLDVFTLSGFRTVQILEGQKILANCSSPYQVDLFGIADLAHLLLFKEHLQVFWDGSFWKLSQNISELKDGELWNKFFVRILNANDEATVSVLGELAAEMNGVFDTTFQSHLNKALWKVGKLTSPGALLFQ
T1 sequence (O43684 whole entry, chain 2 of 2, further chain): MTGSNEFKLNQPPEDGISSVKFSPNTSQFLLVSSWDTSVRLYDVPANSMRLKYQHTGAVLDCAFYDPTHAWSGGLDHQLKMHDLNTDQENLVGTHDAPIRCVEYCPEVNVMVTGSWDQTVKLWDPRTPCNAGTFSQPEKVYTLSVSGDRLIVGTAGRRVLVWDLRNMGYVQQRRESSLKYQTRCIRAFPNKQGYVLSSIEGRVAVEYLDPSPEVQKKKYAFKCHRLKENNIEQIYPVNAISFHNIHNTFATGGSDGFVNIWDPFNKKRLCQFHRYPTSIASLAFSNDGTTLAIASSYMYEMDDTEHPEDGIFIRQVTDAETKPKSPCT

B1: O-MAD2^TAMRA (natural protein)
chain: not shown
modifications: TAMRA (fluorescence acceptor; position not stated)
notes: MAD2, human, added in the open topology (O-MAD2)
B1: binds.
